Here are results for three molecules from PMC3610928.

The chains behind the UniProt entries cited, without tags or fusion partners. Where a name states a change or a piece, a line headed by the entry shows the natural chain unless it says otherwise. Residues count along the entry.
UniProt Q12306, residues 1-96: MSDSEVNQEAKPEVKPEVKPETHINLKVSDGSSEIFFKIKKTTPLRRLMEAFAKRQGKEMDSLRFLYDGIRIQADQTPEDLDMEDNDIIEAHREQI

What all share (experiment): two-hybrid; cir^0 two-hybrid reporter yeast strain CTMD/3a co-transformed with Gal4AD and LexA fusion plasmids; co-transformants grown 24 h on a nitrocellulose membrane; lacZ reporter, β-galactosidase filter assay with X-gal
Assay [1] deals with T1, Rep1 (2 µm plasmid partitioning protein), wild type (S. cerevisiae (2 µm plasmid)) (UniProt P03871).
T1 sequence: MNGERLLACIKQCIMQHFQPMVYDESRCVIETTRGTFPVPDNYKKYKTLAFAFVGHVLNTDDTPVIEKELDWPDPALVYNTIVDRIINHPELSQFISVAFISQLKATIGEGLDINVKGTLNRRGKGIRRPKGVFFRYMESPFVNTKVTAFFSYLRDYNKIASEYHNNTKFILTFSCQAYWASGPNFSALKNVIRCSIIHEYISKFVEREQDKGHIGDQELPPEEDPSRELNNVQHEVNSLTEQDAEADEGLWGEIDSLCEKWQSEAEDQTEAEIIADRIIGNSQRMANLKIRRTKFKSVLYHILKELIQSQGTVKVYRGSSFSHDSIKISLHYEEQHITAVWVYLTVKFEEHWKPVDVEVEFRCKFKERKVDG

The target of assay [2] is T2, Rep2 (2 µm plasmid partitioning protein), wild type (S. cerevisiae (2 µm plasmid)) (UniProt P03872).
T2 sequence: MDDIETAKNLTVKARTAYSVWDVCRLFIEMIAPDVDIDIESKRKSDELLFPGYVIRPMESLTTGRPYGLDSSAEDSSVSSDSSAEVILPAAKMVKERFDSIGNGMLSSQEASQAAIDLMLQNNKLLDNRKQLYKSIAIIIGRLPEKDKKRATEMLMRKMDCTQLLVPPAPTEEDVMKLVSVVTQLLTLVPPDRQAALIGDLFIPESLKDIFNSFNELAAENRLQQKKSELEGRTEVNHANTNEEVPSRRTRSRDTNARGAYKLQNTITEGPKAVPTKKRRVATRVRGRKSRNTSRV

Assay [3] concerns the target T3, Nis1 SUMO interaction-motif-containing domain (residues 357–408) (yeast (S. cerevisiae)) (UniProt P53939).
T3 sequence: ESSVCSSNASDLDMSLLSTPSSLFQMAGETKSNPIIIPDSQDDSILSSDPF

The target of assay [4] is T1, Rep1 (2 µm plasmid partitioning protein), wild type (S. cerevisiae (2 µm plasmid)). The source holds these as a separate data set.
Assay [5] has as its target T4, Rep1_(I202T) (S. cerevisiae (2 µm plasmid)) (UniProt P03871).
T4 sequence: T1 sequence with I202T

Assay [6] concerns the target T5, Rep1-K305,315,328R (Rep1_(3R)) (S. cerevisiae (2 µm plasmid)) (UniProt P03871).
T5 sequence: T1 sequence with K305R, K315R, K328R

Where a chain is given by its changes, count along the chain named. Where two headings read alike, the source gives them in different places. No constants are given. Whether binding was seen depends on the method and setting. Some entries that bind do so weakly or less than the wild type.

For “SUMOΔGG (conjugation-defective SUMO lacking the two C-terminal glycine residues) (from UniProt Q12306 1-96) (domain or fragment)”, the binding result in assay [1] was “no binding”; in assay [2], “no binding”; in assay [3], “binds”.

B1: Rep2 (2 µm plasmid partitioning protein), wild type (protein, UniProt P03872 1-296)
chain: T2 sequence
On to B1, for which the binding entry in assay [4] and in assay [5] was “binds” in each case.

B2: Rep2-K42,44,92,124,130,134,146,148,149,177,208,226,227R (Rep2_(13R)) (protein, UniProt P03872 1-296)
chain: MDDIETAKNLTVKARTAYSVWDVCRLFIEMIAPDVDIDIESRRRSDELLFPGYVIRPMESLTTGRPYGLDSSAEDSSVSSDSSAEVILPAARMVKERFDSIGNGMLSSQEASQAAIDLMLQNNRLLDNRRQLYRSIAIIIGRLPERDRRRATEMLMRKMDCTQLLVPPAPTEEDVMRLVSVVTQLLTLVPPDRQAALIGDLFIPESLRDIFNSFNELAAENRLQQRRSELEGRTEVNHANTNEEVPSRRTRSRDTNARGAYKLQNTITEGPKAVPTKKRRVATRVRGRKSRNTSRV
Take B2: the binding entry in assay [6] was “binds”.
